The values that follow come from the supplement of paper PMC11417369.

The other results are listed elsewhere or left out.

In the assay the test system is PfSIP2 AP2 domain 1 (GST-tagged). In words: gcPBM binding intensity (ln(normalized median fluorescence intensity)); higher = stronger DNA binding. The method, boiled down:
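DNA-binding domains from P. falciparum, fused to GST and produced in E. coli, were put on an Agilent 4 × 180k double-stranded probe array for 1 h in 1× PBS holding 1% milk, 0.2 mg/ml BSA, 0.5% salmon testes DNA and 0.03% Triton X-100. Probes were primer-extended, 36 bp long and drawn from intergenic genomic regions, with negative controls included. After Alexa488 anti-GST antibody detection and a 488 nm scan, binding intensity was set as the highest Masliner-normalised natural-log median intensity across replicate spots of either probe orientation.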
On to “TATTGTTTTTTTGATTTTTTTTTTTTTTTTAATGAA [CACACA_negctrl_site824]”, for which the “gcPBM binding intensity (ln)” value was determined as 6.67.

Regarding “ACCAAATCATATATAGCACACAAATTCTTTATTATT [CACACA_site8911]”, the “gcPBM binding intensity (ln)” value was found to be 7.13. To “AATATTTTCTGTAATACTTCTTTTCAATTTATTTCG [CACACA_negctrl_site1390]” belongs 6.94. Regarding “AATATCAATGATGTTACATGCAAGAGAATCCACAAA [TGCATGCA_site678]”, the “gcPBM binding intensity (ln)” value is 7.09. For “ACGTAAAATTATTATTGTACATGTAAATAATTTGGA [XGTACX_site8154]” the value was 6.9; for “ATTTACATTCACTTATGTACTTATATAATTTTATTT [XGTACX_site8150]”, 7.11; for “TAACTCCACAAATAATGTACATATATCACTATATTT [XGTACX_site4911]”, 7. “AATGTATAATTATAATGTACAAATAATATATAATAT [XGTACX_site5407]”: the “gcPBM binding intensity (ln)” value came to 7.17. Consider “TATATAATATATATTTTATATTTGTAATAATTTTTT [GTGCAC_negctrl_site497]”, for which the “gcPBM binding intensity (ln)” value stood at 6.89.

Regarding “TACATATGAAAATACACACATACATACATATATATA [CACACA_site1673]”, the “gcPBM binding intensity (ln)” value is 7.4.

Take “CAAAATATAGATGACACACACAAAAAAAGTATATTA [CACACA_site6848]”: the “gcPBM binding intensity (ln)” value is 6.75.

Consider “AGATAAAAAAAGTACACACACACATATATATATATA [CACACA_site3072]”, for which the “gcPBM binding intensity (ln)” value came to 9.26. On to “AAGCTTCCTTAATATACACACATATCTGAGTATATT [CACACA_site5939]”, for which the “gcPBM binding intensity (ln)” value was 6.84. Take “CATTTACCCTTATTAACACACAAAATATAATACGCT [CACACA_site2565]”: the “gcPBM binding intensity (ln)” value was found to be 7.21. As for “ATAGAAAGTGACAATTGTACATACATATTATATATA [XGTACX_site4390]”, the “gcPBM binding intensity (ln)” value was found to be 7.49.

For the sequence “TTCTTGGAATACAAGTGTACTTTATTATTATTATTA [XGTACX_site5997]”, the “gcPBM binding intensity (ln)” value is 7.25. Consider “AAAAAAAAAAAAAAAAAAAAATTTCAATTATATTGA [GTGCAC_negctrl_site642]”, for which the “gcPBM binding intensity (ln)” value is 8.1. In the case of “TTTTTTTTTGCCTACTGTACTATTTTTGAGCTCACC [XGTACX_site7967]”, the “gcPBM binding intensity (ln)” value turned out to be 6.99. For “AAAATTATAATATATACACACATATATATATTAAAT [CACACA_site473]”, the “gcPBM binding intensity (ln)” value was 6.99. Regarding “TTTTTTTTTTTTTGGTGTACCATAGGTAAAATGATT [XGTACX_site8020]”, the “gcPBM binding intensity (ln)” value worked out at 7.2. As for “ATTTATGGAAAAAGAACACACAATCAAACAAAAATA [CACACA_site3707]”, the “gcPBM binding intensity (ln)” value is 7.06. For “ATATAAATGAATATATGTACATATATATATATATAT [XGTACX_site6361]” the value was 9.12.

Consider “TGACCTGTTCAGGTAACACACATATAAACCCATACA [CACACA_site31]”, for which the “gcPBM binding intensity (ln)” value amounted to 7.1. In the case of “ATGCTATAGGATCTTACACACATTTTTGTAAAAAAA [CACACA_site1868]”, the “gcPBM binding intensity (ln)” value came out at 7.01. Turning to “TATATATATATATATGTGCACTGAAAGAATTATACA [GTGCAC_site9586]”, the “gcPBM binding intensity (ln)” value stood at 10.3. As to “TTTTTCTAATTATGCACACATATCAAAATATTCAAT [CACACA_site2749]”, the “gcPBM binding intensity (ln)” value turned out to be 9.18.

Regarding “GCTCAATTTTTGGGTACACACAAATGTATAAGAATA [CACACA_site7178]”, the “gcPBM binding intensity (ln)” value stood at 7.18. With “ATATATATAGAAATATGTACGAAAAAAATATCACAT [XGTACX_site746]”, the “gcPBM binding intensity (ln)” value came to 7.63. For the sequence “TATTTATTTTATATATGTACATAATATATTCTTATA [XGTACX_site1619]”, the “gcPBM binding intensity (ln)” value came to 7.05.

Turning to “AAAATCAAAAAAACAAGTACAAATGTGGACTTTTTT [XGTACX_site5363]”, the “gcPBM binding intensity (ln)” value is 6.65. As for “TGTTCTATGGTTTGTAGTACTTTAATAAATATAAAT [XGTACX_site7823]”, the “gcPBM binding intensity (ln)” value was 7.44.

On to “AATAAGCTCACGTGTCGTACATTTTTTAAAACAACC [XGTACX_site4707]”, for which the “gcPBM binding intensity (ln)” value amounted to 7.23. To “TCAAAAAAAAAAAAAAAAAAAAAAAAAAAAAAAAAA [CACACA_negctrl_site1753]” belongs 7.27; to “AAGAACTCATTAATAATGTAATATTTTATAATTTAG [CACACA_negctrl_site321]”, 6.55. For ATAATAAAACTCAAAGTGCATTAGAATAATTGTAAA the value was 7.65; for “ATTCATAAATATATTTGTACATATTATATATAAATA [XGTACX_site1907]”, 7.25; for “TATACATATTTCTATTGTACATAAACTAAATCTTCA [XGTACX_site28]”, 6.86. In the case of ACAATAAATATGTGGTTGCACTTATAATATATTTAT, the “gcPBM binding intensity (ln)” value is 7.81. Consider “TAATATATAACGTGCACACACACATTTACGTATGAA [CACACA_site1832]”, for which the “gcPBM binding intensity (ln)” value was 9.88. For “AGCACCCACCAACACACACACACACCCACCCACCCA [CACACA_site8011]” the value was 7.8. On to “TACAATTGTAAAGGCGCACACATATATATATATATA [CACACA_site1392]”, for which the “gcPBM binding intensity (ln)” value is 9.39. With “GATATTATTGCATATTTACACACGTACTAATTTAAA [CACACA_site8231]”, the “gcPBM binding intensity (ln)” value amounted to 7.76. Regarding “TTTTTATAATAAAAAAATATAACTATATTAAGCCAC [CACACA_negctrl_site555]”, the “gcPBM binding intensity (ln)” value was determined as 7.1. Take “TATTTTTATCAATTCACACATAAATATATTTATATG [CACACA_site5547]”: the “gcPBM binding intensity (ln)” value came out at 7.07.

As to “CACAGTGATATAAAAACACACATGAATTAAAATTTC [CACACA_site4999]”, the “gcPBM binding intensity (ln)” value came out at 6.92.
